# Results published in PubChem BioAssay AID624260 (Broad Institute, 2012).
# About 30 (0.07%) of roughly 44,000 compounds were called active. The shares of active, inactive and inconclusive entries below differ from those in the screen. Rule as the data show it: active = inhibition above about 54% (passing the limit was not always enough); inconclusive = no clear call, values can overlap the other calls.
# Biological target: Histone-lysine N-methyltransferase NSD2 (Homo sapiens) (UniProt O96028)
# Assay: NSD2 histone methyltransferase activity blockers – biochemical, plate reader, single point, primary screen (AID 624260);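 also: inhibitors reduce the monomethyl H3K36 fluorescence signal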
# Conditions: NSD2-SET H3K36me1 DELFIA fluorescence, at 12.5 µM, active compounds read high
# Sequence of UniProt O96028 (O96028 whole entry, looked up): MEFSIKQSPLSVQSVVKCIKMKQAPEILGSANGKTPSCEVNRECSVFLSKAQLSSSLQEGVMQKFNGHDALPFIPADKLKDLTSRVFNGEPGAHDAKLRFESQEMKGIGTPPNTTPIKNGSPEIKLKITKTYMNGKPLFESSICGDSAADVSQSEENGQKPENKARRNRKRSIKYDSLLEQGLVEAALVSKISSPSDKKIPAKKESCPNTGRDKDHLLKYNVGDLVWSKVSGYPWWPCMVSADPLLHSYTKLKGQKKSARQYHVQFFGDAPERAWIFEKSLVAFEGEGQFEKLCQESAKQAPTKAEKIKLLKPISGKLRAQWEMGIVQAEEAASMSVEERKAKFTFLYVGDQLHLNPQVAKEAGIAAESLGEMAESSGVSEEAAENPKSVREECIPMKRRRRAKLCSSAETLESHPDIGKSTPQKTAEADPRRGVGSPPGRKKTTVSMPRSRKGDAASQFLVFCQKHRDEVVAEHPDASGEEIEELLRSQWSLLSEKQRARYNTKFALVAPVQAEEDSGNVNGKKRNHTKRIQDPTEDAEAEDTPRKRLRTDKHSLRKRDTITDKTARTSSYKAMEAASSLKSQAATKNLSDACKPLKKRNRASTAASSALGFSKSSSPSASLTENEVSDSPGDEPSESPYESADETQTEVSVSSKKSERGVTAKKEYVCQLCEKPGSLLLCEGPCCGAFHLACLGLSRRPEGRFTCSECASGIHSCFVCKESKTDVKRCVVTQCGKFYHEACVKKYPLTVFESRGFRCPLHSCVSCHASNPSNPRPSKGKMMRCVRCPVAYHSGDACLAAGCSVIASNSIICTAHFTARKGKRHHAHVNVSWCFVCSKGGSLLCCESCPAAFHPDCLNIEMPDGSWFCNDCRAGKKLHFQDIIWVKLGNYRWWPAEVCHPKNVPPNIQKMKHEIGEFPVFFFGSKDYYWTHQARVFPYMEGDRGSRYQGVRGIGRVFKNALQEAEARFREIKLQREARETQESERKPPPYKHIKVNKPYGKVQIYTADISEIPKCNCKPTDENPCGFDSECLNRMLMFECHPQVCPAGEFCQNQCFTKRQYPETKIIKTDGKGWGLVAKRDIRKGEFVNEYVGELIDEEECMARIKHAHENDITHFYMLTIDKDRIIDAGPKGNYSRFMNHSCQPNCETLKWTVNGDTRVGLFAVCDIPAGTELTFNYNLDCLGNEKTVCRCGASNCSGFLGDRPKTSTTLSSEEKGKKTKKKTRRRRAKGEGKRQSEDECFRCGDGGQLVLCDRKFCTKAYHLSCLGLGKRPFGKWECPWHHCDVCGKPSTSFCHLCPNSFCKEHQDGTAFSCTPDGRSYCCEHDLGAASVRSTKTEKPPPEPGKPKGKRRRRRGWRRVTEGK
row,SMILES,inhibition
1,CNC[C@@H]1Oc2c(NS(=O)(=O)c3ccc(Cl)cc3)cccc2C(=O)N([C@@H](C)CO)C[C@@H]1C,inconclusive: 87.8%
2,C[C@H](CO)N1C[C@H](C)[C@@H](CN(C)Cc2ccncc2)Oc2cc(-c3ccccc3F)ccc2S1(=O)=O,inconclusive: 55.9%
3,COc1ccc2c(c1)O[C@H]1c3ccc(O)cc3OC[C@@H]21,inactive: 2.01%
4,C[C@@H]1CN([C@H](C)CO)C(=O)c2cccc(NS(=O)(=O)c3cccs3)c2O[C@H]1CN(C)CC1CCCCC1,inactive: -4.2%
5,CNC[C@H]1Oc2ccc(N(C)C)cc2C(=O)N([C@H](C)CO)C[C@@H]1C,inactive: -1.21%
6,O=C(N1CCOCC1)[C@@]1(Cc2ccccc2)COC(c2ccc(OCCCO)cc2)=N1,inactive: -4.6%
7,CC1=CC(=O)OC1(O)CCC(C)CC(=O)O (centres undefined),active: 74.8%
8,COc1ccc(S(=O)(=O)Nc2cccc3c2O[C@@H](CN(C)S(=O)(=O)c2ccc(Cl)cc2)[C@@H](C)CN([C@H](C)CO)C3=O)cc1,inconclusive: 50.1%
9,C[C@H](CO)N1C[C@H](C)[C@@H](CN(C)C(=O)Cc2ccccn2)Oc2ncc(-c3ccc(F)cc3)cc2C1=O,inconclusive: 133%
10,O=c1c(O[C@@H]2O[C@H](CO)[C@H](O)[C@H](O)[C@H]2O)c(-c2cc(O)c(O)c(O)c2)oc2cc(O)cc(O)c12,active: 85.3%
11,C[C@@H]1CN([C@@H](C)CO)C(=O)c2cc(NS(=O)(=O)c3cccs3)ccc2O[C@@H](C)CCCCO[C@H]1CN(C)C(=O)CCC(F)(F)F,inconclusive: 162%
12,CN(C)C(=O)C[C@@H]1C[C@@H]2c3cc(NC(=O)C4CCOCC4)ccc3O[C@@H]2[C@@H](CO)O1,inactive: -0.279%
13,CCCC#Cc1cnc2c(c1)C(=O)N([C@@H](C)CO)C[C@@H](C)[C@H](CN(C)C(=O)C1CCC1)O2,inconclusive: 90.8%
14,C[C@@H]1CCCCO[C@@H](CN(C)C(=O)Nc2ccc(C(F)(F)F)cc2)[C@@H](C)CN([C@@H](C)CO)C(=O)c2cc(N(C)C)ccc2O1,inactive: -3.26%
15,C[C@H]1CN([C@@H](C)CO)C(=O)c2cc(-c3ccncc3)cnc2O[C@@H]1CN(C)C(=O)c1cccc(F)c1,inactive: -0.363%
16,Cc1cc(N2CC(C)CC(C)C2)nc2ccc(NC(=O)CCC(=O)Nc3ccc(F)cc3Cl)cc12 (centres undefined),inactive: -2.58%
17,COCC(=O)Nc1ccc2c(c1)[C@H]1C[C@H](CC(=O)NCc3ccc(Cl)cc3)O[C@H](CO)[C@H]1O2,inconclusive: 55.8%
18,C[C@@H]1CC[C@]2(C(=O)OC3OC(CO)C(OC4OC(CO)C(O)C(O)C4O)C(O)C3O)CC[C@]3(C)C(=CCC4[C@@]5(C)CC[C@H](O)[C@](C)(C(=O)O)C5CC[C@]43C)C2[C@]1(C)O (some centres undefined),inactive: 33.1%
19,C[C@@H]1CN([C@@H](C)CO)C(=O)c2cc(C#CC3CC3)cnc2O[C@H]1CN(C)C(=O)c1ccccc1,inactive: 2.01%
20,C[C@@H]1O[C@@H](O[C@@H]2[C@@H](O)[C@H](O[C@@H]3[C@@H](O)[C@@H](O)[C@H](O[C@H]4[C@H](OC(=O)[C@]56CCC(C)(C)C[C@H]5C5=CCC7[C@@]8(C)C[C@H](O)[C@H](O[C@@H]9O[C@H](C(=O)O)[C@@H](O)[C@H](O)[C@H]9O)[C@@](C)(CO)C8[C@H](O)C[C@@]7(C)[C@]5(C)C[C@H]6O)OC[C@H](O)[C@@H]4O)O[C@H]3C)OC[C@H]2O)[C@H](O)[C@H](O)[C@H]1O (some centres undefined),inactive: 45.2%
21,COC(=O)CCCCCCC(=O)N/N=C/c1cc(OC)c(OC)cc1[N+](=O)[O-],inactive: -1.31%
22,O=C(N/N=C/c1cc(Br)c(O)c(Br)c1)c1ccccc1O,inactive: 1.27%

row,SMILES,inhibition
1,CCCC#Cc1ccc2c(c1)O[C@@H](CN(C)C(=O)c1ccccc1)[C@@H](C)CN([C@H](C)CO)S2(=O)=O,inconclusive: 160%
2,C[C@H]1CN([C@@H](C)CO)C(=O)c2cc(-c3cncnc3)cnc2O[C@H]1CN(C)C(=O)c1ccccc1F,inconclusive: 95.3%
3,C/S(=N\S(=O)(=O)c1cccc2nsnc12)c1ncc(Cl)cc1C(F)(F)F (centres undefined),inactive: 9.83%
4,C[C@@H]1CN([C@@H](C)CO)C(=O)Cc2cc(NC(=O)Nc3ccc(C(F)(F)F)cc3)ccc2O[C@H]1CN(C)C(=O)Nc1ccc(F)cc1,inactive: -13.8%
5,O=C(/C=C/c1ccc(OCCc2cccs2)cc1)NO,inactive: 10.6%
6,C[C@@H]1CN([C@H](C)CO)C(=O)c2cc(NC(=O)Nc3ccc(F)cc3)ccc2O[C@@H]1CN(C)S(=O)(=O)c1cn(C)cn1,inconclusive: 59.3%
7,Cc1noc(C)c1NC(=O)Nc1ccc2c(c1)C(=O)N([C@H](C)CO)C[C@H](C)[C@H](CN(C)C(=O)Nc1c(C)noc1C)OCCCC[C@@H](C)O2,inconclusive: 78.3%
8,C[C@@H]1CN([C@@H](C)CO)C(=O)c2cc(N(C)C)ccc2O[C@@H](C)CCCCO[C@@H]1CN(C)C(=O)Cc1ccccc1,inconclusive: 96.5%
9,C[C@@H]1CCCCO[C@@H](CN(C)C(=O)C2CCCCC2)[C@H](C)CN([C@@H](C)CO)C(=O)c2cc(NC(=O)Nc3ccccc3)ccc2O1,inconclusive: 129%
10,CC(C)CC#Cc1ccc2c(c1)O[C@H](CN(C)C(=O)CC1CC1)[C@@H](C)CN([C@@H](C)CO)S2(=O)=O,inactive: -15.5%
11,COc1ccc(NC(=O)Nc2ccc3c(c2)[C@@H]2C[C@@H](CC(=O)N4CCOCC4)O[C@@H](CO)[C@@H]2O3)cc1,inconclusive: 93.3%
12,CCOc1ccc(-c2nc(C#N)c(NCCCN(CC)CC)o2)cc1,inactive: -6.95%
13,CC(C)NC(=O)Nc1ccc2c(c1)C(=O)N([C@@H](C)CO)C[C@@H](C)[C@H](CN(C)Cc1ccc(C(=O)O)cc1)OCCCC[C@@H](C)O2,inconclusive: 89.9%
14,Cc1ccc(NC(=O)c2[nH]c3c(c2C)C(=O)CC(c2ccc(C(C)(C)C)cc2)C3)cc1C (centres undefined),inactive: 0.744%
15,C[C@@H]1CCCCO[C@@H](CN(C)Cc2ccccc2)[C@@H](C)CN([C@H](C)CO)C(=O)c2cc(NS(=O)(=O)c3ccccc3)ccc2O1,inconclusive: 88.4%
16,CCC(=O)N(C)C[C@H]1Oc2cc(C#CCC3CCCC3)ccc2S(=O)(=O)N([C@H](C)CO)C[C@@H]1C,inconclusive: 177%
17,O=C(O)c1c(O)cc(OC2OC(CO)C(O)C(O)C2O)cc1/C=C/c1ccccc1 (centres undefined),active: 75.7%
18,C[C@H](CO)N1C[C@H](C)[C@H](CN(C)C(=O)NC2CCCCC2)Oc2ncc(C#Cc3ccc(F)cc3)cc2C1=O,inconclusive: 165%
19,O=C(C[C@H]1C[C@@H]2c3cc(NS(=O)(=O)c4ccc(F)cc4)ccc3O[C@@H]2[C@@H](CO)O1)NC1CCCC1,inactive: 0.456%
20,COc1ccc(NC(=O)Nc2ccc3c(c2)CC(=O)N([C@H](C)CO)C[C@@H](C)[C@@H](CN(C)C(=O)Nc2ccccc2)O3)cc1,inconclusive: 168%
21,C[C@@H]1CN([C@H](C)CO)C(=O)c2cccc(NC(=O)Nc3ccc(C(F)(F)F)cc3)c2O[C@@H]1CN(C)Cc1ccc(C(F)(F)F)cc1,inactive: -13.3%
22,CC(C)C#Cc1ccc2c(c1)O[C@@H](CN(C)S(=O)(=O)c1cn(C)cn1)[C@@H](C)CN([C@@H](C)CO)S2(=O)=O,inconclusive: 80.1%
